The campaign covered roughly 48,000 compounds. About 550 (1.1%) were called active. Another 4% or so got no clear call; they are omitted. No stated cut-off is given here; in the data, active means potency below about 15 µM; inconclusive means mostly about 16 µM to 33 µM; inactive means weaker than that. The list shows a part of the results. Where only a bound is given, the exact number is not on record here.

Among the data in PubChem BioAssay AID360 (National Center for Advancing Translational Sciences (NCATS), 2006) are Potency values, retold here.
Potency means the concentration at half of the fitted maximal effect.

The test deals with Lysosomal acid glucosylceramidase (Homo sapiens) (UniProt P04062). As to the kind of experiment: Glucocerebrosidase.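 Further: the screen sought inhibitors.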 Conditions: purified enzyme, resorufin glucoside fluorescence (screen aimed at inhibitors), 20 min. An outline of the steps: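 Compounds titrated against 0.2 nM normal enzyme, 30 uM resorufin beta-D-glucopyranoside substrate, citrate/phosphate buffer with taurocholate and tween-20, pH 5.9. Reaction ran 20 min at room temperature; fluorescence (Ex 548/Em 600) gave AC50.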
Sequence of UniProt P04062 (P04062 whole entry, looked up): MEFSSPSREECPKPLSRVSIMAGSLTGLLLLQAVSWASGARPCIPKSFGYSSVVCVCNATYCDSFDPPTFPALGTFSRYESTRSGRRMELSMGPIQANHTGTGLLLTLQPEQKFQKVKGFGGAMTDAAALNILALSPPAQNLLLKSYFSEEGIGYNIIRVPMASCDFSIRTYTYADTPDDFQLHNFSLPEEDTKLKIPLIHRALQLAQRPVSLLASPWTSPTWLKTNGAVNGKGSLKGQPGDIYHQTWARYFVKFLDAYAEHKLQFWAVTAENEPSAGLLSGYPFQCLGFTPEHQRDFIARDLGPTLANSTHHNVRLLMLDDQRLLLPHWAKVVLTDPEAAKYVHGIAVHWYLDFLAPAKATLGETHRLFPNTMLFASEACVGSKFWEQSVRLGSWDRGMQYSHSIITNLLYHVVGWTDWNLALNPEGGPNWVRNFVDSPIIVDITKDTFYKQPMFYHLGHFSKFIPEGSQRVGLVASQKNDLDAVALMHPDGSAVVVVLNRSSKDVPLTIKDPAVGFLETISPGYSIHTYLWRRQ
As to `O=C(CSc1ncnc2c1oc1ccccc12)N1CCc2ccccc2C1`, the Potency is inactive: > 76.9 µM.
Regarding `O=C(CN(C(=O)CNS(=O)(=O)c1ccccc1)c1ccc2c(c1)OCCO2)NC1CCCCC1`, the Potency was active: 12 µM.
For `CCOC(=O)C1=C(CSc2n[nH]c(N)n2)NC(=O)NC1C` (configuration not stated) the value was inactive: > 76.9 µM; for `COc1ccc(CNc2nc3c(c(=O)[nH]c(=O)n3C)n2CCCc2ccccc2)cc1`, inactive: > 76.9 µM.
For `O=C(c1nnc(-c2ccncc2)o1)c1ccccc1Cl` the value was inactive: > 76.9 µM; for `Nc1nonc1C(=O)OCC(=O)N1CCOCC1`, inactive: > 76.9 µM; for `CCOCCn1c(SCCCc2ccccc2)nc2c1c(=O)[nH]c(=O)n2C`, inactive: > 76.9 µM.
For `CC1(C)OC(=O)C(=CNc2cccc(O)c2)C(=O)O1` the value was inactive: > 76.9 µM.
As for `O=C(CN(Cc1ccco1)C(=O)Cn1nnc(-c2ccc(F)cc2)n1)NC1CCCC1`, the Potency is inactive: > 76.9 µM.
For `CC(C)N(Cc1cc2ccccc2[nH]c1=O)C(=O)C1CCCCC1` the value was inactive: > 76.9 µM.
For `O=C(CSC1=NCCS1)NC1CCCCC1`, the Potency was inactive: > 76.9 µM.
Turning to `CCOC(=O)C1=C(N)n2c(s/c(=C\c3cccnc3)c2=O)=C(C#N)C1c1cccnc1` (configuration not stated), the Potency was inactive: > 76.9 µM.
`CC1CC(C)CN(CCCNC(=O)CNC(=O)Cn2ccc3ccccc3c2=O)C1` (configuration not stated): the Potency was inactive: > 76.9 µM.
Regarding `O=C(O)CN1CCNCC1`, the Potency is inactive: > 76.9 µM.
For `CCc1ccc(NC(=O)CSc2nnc(-c3ccccn3)n2C)cc1` the value was inactive: > 76.9 µM; for `CN(C)c1nc(N)nc(CSc2nnnn2-c2cccc3ccccc23)n1`, inactive: > 76.9 µM.
On to `CNC(=O)CSc1nnc(-c2ccc(S(=O)(=O)N3CCCC3)cc2)n1-c1cccc(C)c1C`, for which the Potency is inactive: > 76.9 µM.
For the molecule `O=c1/c(=C/c2cccc3ccccc23)sc2ncnn12`, the Potency was inactive: > 76.9 µM.
As to `CC(C)N1CC2=C(OC(N)=C(C#N)C2c2cccnc2)/C(=C/c2cccnc2)C1` (configuration not stated), the Potency was inactive: > 76.9 µM.
For `Cc1ccc(N2CCN(C(=O)C3CCN(S(=O)(=O)c4cccc5nsnc45)CC3)CC2C)cc1` (configuration not stated) the value was inactive: > 76.9 µM; for `O=C1NC(c2ccccc2)C(C(=O)c2cccs2)=C1O` (configuration not stated), inactive: > 76.9 µM; for `CCn1c(CCNC(=O)c2ccc(OC)c(OC)c2)nc2ccccc21`, inactive: > 76.9 µM.
Take `COc1ccc2c(CCNC(=O)c3ccco3)c[nH]c2c1`: the Potency is inactive: > 76.9 µM.
The result for `O=C(CCCNS(=O)(=O)c1cccc2nsnc12)NCc1ccc(F)cc1` reads inactive: > 76.9 µM; that for `O=C(c1ccco1)N1CCN(C(=O)c2cccn3c(=O)c4c5c(sc4nc23)CCCC5)CC1`, inactive: > 76.9 µM; that for `O=C(NCc1ccccc1F)c1cccs1`, inactive: > 76.9 µM.
Turning to `CC1(C)N=C(c2ccc(Cl)cc2)C(=O)N1`, the Potency is inactive: > 76.9 µM.
For the molecule `COc1ccc(S(=O)(=O)CCC(=O)N2CC(=O)N(CCc3ccccc3)C(=O)C2)cc1`, the Potency is inactive: > 76.9 µM.
As for `COC(=O)c1nc2n(n1)C(c1ccc(OC)c(OC)c1OC)C1=C(CCCC1=O)N2` (configuration not stated), the Potency was inactive: > 76.9 µM.
On to `O=C(NCCCN1CCOCC1)c1cc2cc(Br)ccc2oc1=O`, for which the Potency is inactive: > 76.9 µM.
With `Cc1ccc(-n2cnnn2)c(S(=O)(=O)N2CCOCC2)c1`, the Potency is inactive: > 76.9 µM.
Consider `Cc1ccc(CN2C(=O)CCC2C(=O)NCCN2CCN(c3cccc(Cl)c3)CC2)cc1` (configuration not stated), for which the Potency is inactive: > 76.9 µM.
For the molecule `CC1CCN(C(=O)CN2C(=O)C(C)(C)Oc3ccc(C(=O)NC4CCCC4)cc32)CC1`, the Potency was inactive: > 76.9 µM.
For the molecule `c1csc(C(c2nnnn2C2CCCC2)N2CCOCC2)c1` (configuration not stated), the Potency was inactive: > 76.9 µM.
On to `COC(=O)Cc1ccc(NC(=O)c2cccs2)cc1`, for which the Potency is inactive: > 76.9 µM.
As to `COc1ccc(CCNC(=O)CSc2nnc(CNC(=O)c3cccs3)o2)cc1OC`, the Potency is inactive: > 76.9 µM.
For `CCN(CC)CCNCc1ccc(-c2ccc(Cl)cc2)o1`, the Potency was inactive: > 76.9 µM.
For `Cn1nc(-c2ccc(C(=O)NCC3CCCO3)cc2)c2ccccc2c1=O` (configuration not stated) the value was inactive: > 76.9 µM; for `CCC(c1nnc(SCC(=O)Nc2ccc(C(=O)Nc3ccccc3OC)cc2)o1)N(C)C` (configuration not stated), inactive: > 76.9 µM; for `COc1cc(C(=O)N(CCCO)Cc2cc3ccc(C)c(C)c3[nH]c2=O)cc(OC)c1OC`, inactive: > 76.9 µM.
Regarding `CC(Sc1nnnn1C)C(=O)Nc1ccc(N2CCOCC2)cc1` (configuration not stated), the Potency was inactive: > 76.9 µM.
For the molecule `CCCn1c(SCC(=O)N2CCN(S(=O)(=O)c3ccc(Cl)cc3)CC2)n[nH]c1=O`, the Potency was inactive: > 76.9 µM.
The result for `CC1CCCC(C)N1C(=O)COC(=O)c1ccc2c(c1)OCO2` (configuration not stated) reads inactive: > 76.9 µM; that for `Cc1ccc(N2CC(C(=O)Nc3ccc4c(c3)OCCO4)CC2=O)cc1` (configuration not stated), inactive: > 76.9 µM; that for `O=C(Nc1ccc2c(c1)CCC2)C1CCN(c2ncccn2)CC1`, inactive: > 76.9 µM.
The result for `CCS(=O)(=O)N1CCCC(C(=O)NCCN2CCC(Cc3ccccc3)CC2)C1` (configuration not stated) reads inactive: > 76.9 µM; that for `COc1nc2ccccc2c(=O)n1OCC(C)C`, inactive: > 76.9 µM.
In the case of `COc1ccc(C(=O)Nc2ccc(S(=O)(=O)NCc3ccco3)cc2)cc1OC`, the Potency result is “inactive”.
Take `Cn1c(=O)[nH]c(=O)c2c1nc(N1CCOCC1)n2CCCSc1ncccn1`: the Potency was inactive: > 76.9 µM.
`Cc1cc(Nc2nc3c(c(=O)n(C)c(=O)n3C)n2C)n(-c2ccccc2)n1`: the Potency was inactive: > 76.9 µM.
Take `O=C(CSc1nnc2scc(-c3ccccc3)n12)N1CCN(Cc2ccccc2)CC1`: the Potency is inactive: > 76.9 µM.
For `C=CCn1c(=N)c(C(=O)OC)cc2c(=O)n3cccc(C)c3nc21` the value was inactive: > 76.9 µM.
`CCOCCCNC(=O)CCCOc1ccccc1`: the Potency was inactive: > 76.9 µM.
`O=C(Nc1ccc(CN2CCOCC2)cc1)c1cccc(F)c1`: the Potency was inactive: > 76.9 µM.
For `CCOC(=O)N1CCN(S(=O)(=O)c2cc(Br)cnc2N)CC1` the value was inactive: > 76.9 µM; for `COc1cccc(-n2nnc3c(=O)n(CC(=O)N4CCC(C)CC4)cnc32)c1`, inactive: > 76.9 µM.
Take `Cc1nc(Nc2ccc3c(c2)OCCO3)c2oc3ccccc3c2n1`: the Potency is inactive: > 76.9 µM.
